Measured values from patent publication US9833425B2, “Gentisic acid is used to improve systemic hemodynamics, hepatic mitochondrial function and lactate acidemia in patients with septic shock” (priority 2015, dated 2017).

System: mitochondrial complex IV (cytochrome c oxidase)
Experiment: Enzymatic activity of hepatic mitochondrial complex IV
Type: biochemical, dog
Conditions: hepatic mitochondria of treated non-septic dogs; mean ± SD
Text: As part of our assessment of mitochondrial function, we also measured the enzymatic activity of hepatic mitochondrial complex IV based on the rationale of Levy et al (10), since these investigators considered that dysfunction of complex IV was the most important determinant of abnormal mitochondrial function in SS. We determined complex IV activity spectrophotometrically by a temperature-controlled Ultrospec™ 2100 ultraviolet-visible spectrophotometer (Biopharmacia Biotech, Uppsala, Sweden) (17). Complex IV activity was measured at 25° C. by monitoring the absorbance decrease of reduced cytochrome c at 550 nm.

## O=C([O-])c1cc(O)ccc1O.[Na+] [GSS, 2,5-dihydroxybenzoic acid sodium salt]
  enzymatic activity of mitochondrial complex IV: 3.01±0.66 umol/min/mg protein
